# From the supplement of paper PMC4604168 (melanoma cell lines)
# This is one part of the list. Repeats are few or missing, and single values can be far off.
# What was measured:
# Experiment in all cases: cell count relative to DMSO control; melanoma cells; higher = more viable cells
# Details in all cases: library dose: standard library concentration; 72 h
# A101D = test system: A101D
# A2058 = test system: A2058
# A375 = test system: A375
# 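Further: cells treated in 1,536-well plates, then fixed and DAPI-stained, with nuclei counted from automated high-throughput microscope images.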
SMILES,cell count (A101D),cell count (A2058),cell count (A375)
"Cc1cc(Nc2cc(N3CCN(C)CC3)nc(/C=C/c3ccccc3)n2)n[nH]1 + COc1cc(Nc2ncc(F)c(Nc3ccc4c(n3)NC(=O)C(C)(C)O4)n2)cc(OC)c1OC [Tamatinib] (first compound 0.2 µM, partner dose 2 µM)",58.7%,66.4%,96.4%
"Cn1c(=O)n(-c2ccc(C(C)(C)C#N)cc2)c2c3cc(-c4cnc5ccccc5c4)ccc3ncc21 + CN(NC(=O)CC(=O)NN(C)C(=S)c1ccccc1)C(=S)c1ccccc1 [STA4783] (first compound 0.02 µM, partner dose 0.03 µM)",48.9%,10.8%,81.8%
"Cn1c(=O)n(-c2ccc(C(C)(C)C#N)cc2)c2c3cc(-c4cnc5ccccc5c4)ccc3ncc21 + COc1cc2c(Oc3ccc4[nH]c(C)cc4c3F)ncnc2cc1OCCCN1CCCC1 [cediranib] (first compound 0.02 µM, partner dose 2 µM)",78.9%,55.1%,80.7%
"Cc1cc(Nc2cc(N3CCN(C)CC3)nc(/C=C/c3ccccc3)n2)n[nH]1 + O=C(CCCCCCC(=O)Nc1ccccc1)NO [vorinostat] (first compound 0.2 µM, partner dose 0.4 µM)",70.1%,72.2%,85.8%
"CC(C)C[C@H](NC(=O)[C@H](Cc1ccccc1)NC(=O)c1cnccn1)B(O)O [Bortezomib] + C=C(c1ccc(C(=O)O)cc1)c1cc2c(cc1C)C(C)(C)CCC2(C)C [Bexarotene] (first compound 0.005 µM, partner dose 10 µM)",10.8%,11%,77.8%
"Cc1cc(Nc2cc(N3CCN(C)CC3)nc(/C=C/c3ccccc3)n2)n[nH]1 + Cn1c(Nc2ccc(C(F)(F)F)cc2)nc2cc(Oc3ccnc(-c4ncc(C(F)(F)F)[nH]4)c3)ccc21 [CHIR265] (first compound 0.2 µM, partner dose 0.4 µM)",64.7%,69.4%,78.8%
"COc1ccc(C2=N[C@@H](c3ccc(Cl)cc3)[C@@H](c3ccc(Cl)cc3)N2C(=O)N2CCNC(=O)C2)c(OC(C)C)c1 [Nutlin-3] + COCC[n+]1c2c(n(Cc3cnccn3)c1C)C(=O)c1ccccc1C2=O [YM155] (first compound 0.5 µM, partner dose 0.002 µM)",58.8%,24.9%,70.4%
"Cc1cn(-c2cc(NC(=O)c3ccc(C)c(Nc4nccc(-c5cccnc5)n4)c3)cc(C(F)(F)F)c2)cn1 [nilotinib] + Cc1cc(Nc2cc(N3CCN(C)CC3)nc(/C=C/c3ccccc3)n2)n[nH]1 [ENMD2076] (first compound 1 µM, partner dose 0.2 µM)",87.9%,114%,95%
"Cn1c(=O)n(-c2ccc(C(C)(C)C#N)cc2)c2c3cc(-c4cnc5ccccc5c4)ccc3ncc21 + COc1cc(Nc2ncc(F)c(Nc3ccc4c(n3)NC(=O)C(C)(C)O4)n2)cc(OC)c1OC [Tamatinib] (first compound 0.02 µM, partner dose 2 µM)",59%,59.7%,84.7%
"COc1ccc(C2=N[C@@H](c3ccc(Cl)cc3)[C@@H](c3ccc(Cl)cc3)N2C(=O)N2CCNC(=O)C2)c(OC(C)C)c1 [Nutlin-3] + Cc1cc(Nc2cc(N3CCN(C)CC3)nc(/C=C/c3ccccc3)n2)n[nH]1 [ENMD2076] (first compound 0.5 µM, partner dose 0.2 µM)",71%,103%,91.2%
"Cc1cn(-c2cc(NC(=O)c3ccc(C)c(Nc4nccc(-c5cccnc5)n4)c3)cc(C(F)(F)F)c2)cn1 [nilotinib] + O=C(O)c1ccc(-c2c[nH]c3ncc(-c4ccccc4)cc23)cc1C1CCCC1 [GSK650394] (first compound 1 µM, partner dose 0.8 µM)",92.7%,91.4%,117%
"COc1ccc(C2=N[C@@H](c3ccc(Cl)cc3)[C@@H](c3ccc(Cl)cc3)N2C(=O)N2CCNC(=O)C2)c(OC(C)C)c1 [Nutlin-3] + Nc1nc(F)nc2c1ncn2[C@@H]1O[C@H](CO)[C@@H](O)[C@@H]1O [fludarabine] (first compound 0.5 µM, partner dose 1 µM)",80.5%,102%,38.9%
"Cc1cn(-c2cc(NC(=O)c3ccc(C)c(Nc4nccc(-c5cccnc5)n4)c3)cc(C(F)(F)F)c2)cn1 [nilotinib] + C[C@@H](N)c1ccc(C(=O)Nc2ccnc3[nH]ccc23)cc1 [RKI983] (first compound 1 µM, partner dose 2 µM)",71%,62.2%,96.6%
"Cc1cc(Nc2cc(N3CCN(C)CC3)nc(/C=C/c3ccccc3)n2)n[nH]1 + Cn1c(=O)n(-c2ccc(C(C)(C)C#N)cc2)c2c3cc(-c4cnc5ccccc5c4)ccc3ncc21 [NVP-BEZ235] (first compound 0.2 µM, partner dose 0.02 µM)",53.3%,68.2%,80.1%
"COc1ccc(C2=N[C@@H](c3ccc(Cl)cc3)[C@@H](c3ccc(Cl)cc3)N2C(=O)N2CCNC(=O)C2)c(OC(C)C)c1 [Nutlin-3] + CCN(CC)CCNC(=O)c1c(C)[nH]c(/C=C2\C(=O)Nc3ccc(F)cc32)c1C [sunitinib] (first compound 0.5 µM, partner dose 2 µM)",52.5%,66.9%,73.2%
"Cc1cc(Nc2cc(N3CCN(C)CC3)nc(/C=C/c3ccccc3)n2)n[nH]1 + C[C@]1(c2nc3c(C(N)=O)cccc3[nH]2)CCCN1 [Veliparib] (first compound 0.2 µM, partner dose 7 µM)",79.3%,73%,106%
"Cn1c(=O)n(-c2ccc(C(C)(C)C#N)cc2)c2c3cc(-c4cnc5ccccc5c4)ccc3ncc21 + CC(C)(C)c1cnc(CSc2cnc(NC(=O)C3CCNCC3)s2)o1 [SNS-032] (first compound 0.02 µM, partner dose 0.05 µM)",79.8%,69.9%,82%
"Cc1cn(-c2cc(NC(=O)c3ccc(C)c(Nc4nccc(-c5cccnc5)n4)c3)cc(C(F)(F)F)c2)cn1 [nilotinib] + Cn1c(Nc2ccc(C(F)(F)F)cc2)nc2cc(Oc3ccnc(-c4ncc(C(F)(F)F)[nH]4)c3)ccc21 [CHIR265] (first compound 1 µM, partner dose 0.4 µM)",55.4%,61.9%,104%
"CC(C)C[C@H](NC(=O)[C@H](Cc1ccccc1)NC(=O)c1cnccn1)B(O)O [Bortezomib] + Nc1nc(F)nc2c1ncn2[C@@H]1O[C@H](CO)[C@@H](O)[C@@H]1O [fludarabine] (first compound 0.005 µM, partner dose 1 µM)",24%,11.7%,39.3%
"CC(C)C[C@H](NC(=O)[C@H](Cc1ccccc1)NC(=O)c1cnccn1)B(O)O [Bortezomib] + CN1CCN(c2ccc3nc(-c4c(N)c5c(F)cccc5[nH]c4=O)[nH]c3c2)CC1 [Dovitinib] (first compound 0.005 µM, partner dose 0.5 µM)",14.3%,9.71%,74.6%
"Cc1cc(Nc2cc(N3CCN(C)CC3)nc(/C=C/c3ccccc3)n2)n[nH]1 + COc1cc2ncnc(Nc3ccc(Oc4ccccc4)cc3)c2cc1OC [SrcI1] (first compound 0.2 µM, partner dose 10 µM)",51.9%,70.2%,108%
"Cc1cn(-c2cc(NC(=O)c3ccc(C)c(Nc4nccc(-c5cccnc5)n4)c3)cc(C(F)(F)F)c2)cn1 [nilotinib] + CC1(C)NC(=O)N(c2ccc([N+](=O)[O-])c(C(F)(F)F)c2)C1=O [nilutamide] (first compound 1 µM, partner dose 5 µM)",94%,83.8%,132%
"CC(C)C[C@H](NC(=O)[C@H](Cc1ccccc1)NC(=O)c1cnccn1)B(O)O [Bortezomib] + C[C@]1(c2nc3c(C(N)=O)cccc3[nH]2)CCCN1 [Veliparib] (first compound 0.005 µM, partner dose 7 µM)",18.5%,17.9%,77.8%
"Cc1cc(Nc2cc(N3CCN(C)CC3)nc(/C=C/c3ccccc3)n2)n[nH]1 + CC(=O)c1c(C)c2cnc(Nc3ccc(N4CCNCC4)cn3)nc2n(C2CCCC2)c1=O [palbociclib] (first compound 0.2 µM, partner dose 0.2 µM)",61.5%,94.9%,69.3%
"Cn1c(=O)n(-c2ccc(C(C)(C)C#N)cc2)c2c3cc(-c4cnc5ccccc5c4)ccc3ncc21 + CN(C)S(=O)(=O)c1ccc2c(c1)/C(=C/c1cc3c([nH]1)CCCC3)C(=O)N2 [SU6656] (first compound 0.02 µM, partner dose 2 µM)",74.7%,74%,138%
"COc1ccc(C2=N[C@@H](c3ccc(Cl)cc3)[C@@H](c3ccc(Cl)cc3)N2C(=O)N2CCNC(=O)C2)c(OC(C)C)c1 [Nutlin-3] + CCCCCCCCc1ccc(CCC(N)(CO)CO)cc1 [fingolimod] (first compound 0.5 µM, partner dose 10 µM)",2.7%,4.89%,63.1%
"CC(C)C[C@H](NC(=O)[C@H](Cc1ccccc1)NC(=O)c1cnccn1)B(O)O [Bortezomib] + Clc1ccc(Nc2nnc(Cc3ccncc3)c3ccccc23)cc1 [vatalanib] (first compound 0.005 µM, partner dose 10 µM)",14.3%,9.91%,72.9%
"Cn1c(=O)n(-c2ccc(C(C)(C)C#N)cc2)c2c3cc(-c4cnc5ccccc5c4)ccc3ncc21 + CO[C@H]1C[C@@H]2CC[C@@H](C)[C@@](O)(O2)C(=O)C(=O)N2CCCC[C@H]2C(=O)O[C@H]([C@H](C)C[C@@H]2CC[C@@H](OCCO)[C@H](OC)C2)CC(=O)[C@H](C)/C=C(\C)[C@@H](O)[C@@H](OC)C(=O)[C@H](C)C[C@H](C)/C=C/C=C/C=C/1C [everolimus] (first compound 0.02 µM, partner dose 0.1 µM)",61.2%,33.3%,87.9%
